Data published in PubChem BioAssay AID2546 (National Center for Advancing Translational Sciences (NCATS), 2010).
The whole screen tested about 310,000 compounds, of which about 11,000 (3.5%) were called active. The shares of active, inactive and inconclusive entries below differ from those in the screen. The call rests on the fitted dose curve; in most records, active means well fitted inhibition curve with a large enough effect; inconclusive means small, poorly fitted or top-dose-only effect, or effect the other way; inactive means flat fitted curve, though single readings scatter. Potencies of inconclusive entries are left out as doubtful fits.

assay: VP16 counterscreen qHTS for inhibitors of ROR gamma transcriptional activity; details: Drosophila S2 Gal4-VP16 UAS-luciferase, luminescence, 20 h; activity, negative = inhibition: at 53.6 µM (top of the series);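 further: Gal4-VP16 expression switched on by copper sulfate through the metallothionein promoter; nearly all actives have a fitted effect of over 50% in size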
On the % scale 0 is the no-effect control and ±100 the full control effect; potency means the concentration at half of the fitted maximal effect; tags describe the fitted curve by direction and shape.

Row | Compound | Potency | activity, negative = inhibition
1 | Cc1ccccc1NC(=S)Nc1ccc(Br)cc1 | active: 11.2 µM | –
2 | CCc1ccccc1NC(=S)N1CCN(c2cccc(OC)c2)CC1 | inconclusive [inhibitor, single point] | –
3 | Cc1ccc(-n2nnnc2SCc2nnc(-c3ccccc3Br)o2)c(C)c1 | inconclusive [inhibitor, single point] | –
4 | CCn1c2ccccc2c2nnc(SCCN3CCOCC3)nc21 | – | inactive: -0.509%
5 | CCCCNC(=S)N(C)N=C1CCC(c2ccccc2)CC1 (stereo not given) | inconclusive [inhibitor, single point] | –
6 | OCCN(Cc1ccccc1)C(=S)Nc1ccc(Cl)cc1Cl | inconclusive [inhibitor, single point] | –
7 | O=[N+]([O-])c1ccc(O)c(C2=NNC(c3ccccc3F)C2)c1 (stereo not given) | inconclusive [inhibitor, single point] | –
8 | COc1ccc2[nH]c3c(c2c1)CCNC3c1ccc([N+](=O)[O-])o1 (stereo not given) | inconclusive [inhibitor, partial curve] | –
9 | C1=C(c2ccco2)N2CCN=C2S1 | – | inactive: -13.7%
10 | O=C1c2c(O)ccc([N+](=O)[O-])c2C(=O)c2c([N+](=O)[O-])ccc(O)c21 | active: 11.2 µM | –
11 | CCNc1ncc2nc(CCc3ccccc3)c(=O)n(Cc3ccc(F)cc3)c2n1 | – | inactive: 4.55%
12 | COc1ccc(CNC(=O)CCS(=O)(=O)c2ccc(Br)cc2)cc1 | – | inactive: 0.805%
13 | CC(=O)c1ccc(OCc2cc(C(=O)N3CCCCC3c3cccnc3)no2)cc1 (stereo not given) | inconclusive [inhibitor, single point] | –
14 | CCN1CCN(C(=O)NC(C(=O)NC2C(=O)N3C(C(=O)O)=C(CSc4nnnn4C)CSC23)c2ccc(O)cc2)C(=O)C1=O (stereo not given) | inactive | –
15 | O=S1(=O)CCC(NC(=S)Nc2ccc3ccccc3c2)C1 (stereo not given) | inconclusive [activator, partial curve] | –
16 | CCOC(=O)C1(Cc2ccccc2)CCN(CC2CC=CCC2)CC1 (stereo not given) | – | inactive: -12%
17 | CC1SCC(NC(=O)c2ccccc2Cl)CS1 (stereo not given) | inconclusive [activator, partial curve] | –
18 | COc1ccccc1NC(=S)N1CCCCCC1 | inconclusive [inhibitor, single point] | –
19 | O=C(N/N=C/c1cn[nH]c1-c1ccc(Cl)cc1)c1ccc([N+](=O)[O-])cc1 | inconclusive [inhibitor, single point] | –
20 | c1ccc(CN2CCC(N=C3NN=C(c4ccc5c(c4)OCCO5)CS3)CC2)cc1 | inconclusive [inhibitor, single point] | –
21 | Cc1[nH]c2ccc(C(=O)O)cc2c1C | inconclusive [inhibitor, partial curve] | –
22 | Cc1ccc2[nH]c(=O)c(C3C(C#N)=C(N)Oc4c3ccc3cccnc43)cc2c1 (stereo not given) | – | inactive: -0.803%
23 | Cc1noc(C)c1C(=O)N1CCC[C@@]2(CCN(C(=O)Nc3cccc(F)c3)C2)C1 | – | inactive: 5.97%
24 | CC1CC(C)CN(CCCNC(=O)c2cc3c(=O)[nH]c4ccccc4c3n2C)C1 (stereo not given) | – | inactive: 1.6%
25 | Cc1ccccc1Cn1c(-c2cncs2)nc2ccccc21 | – | inactive: 9.62%

Row | Compound | Potency | activity, negative = inhibition
26 | O=[N+]([O-])c1cc(/C=N\Nc2ccccn2)ccc1Cl | inconclusive [inhibitor, single point] | –
27 | O=C(CNc1cc(S(=O)(=O)N2CCCC2)ccc1OCC(F)(F)F)Nc1cccc(C(F)(F)F)c1 | inconclusive [inhibitor, single point] | –
28 | Cc1cccc(OCC(=O)N2CCc3ccccc3C2)c1 | inconclusive [activator, single point] | –
29 | Cc1ccc(CNC(=O)Nc2ccccc2)cc1 | inconclusive [inhibitor, single point] | –
30 | CC(=O)Nc1ccc(NC(=O)CSc2ncnc3sc(C)c(C)c23)cc1 | – | inactive: -4.94%
31 | CCOc1cc(NC(=O)CCl)c(OCC)cc1NC(=O)CCl | active: 20 µM | –
32 | Cc1ccn2c(=O)nc(SCc3cccc(C(F)(F)F)c3)nc2c1 | inconclusive [activator, single point] | –
33 | COc1cccc(CN(C)Cc2cc(=O)oc3c(C)c(C)ccc23)c1 | inconclusive [inhibitor, single point] | –
34 | Cc1cc2n(c(=O)c1C#N)CCCN2c1cccc(Cl)c1 | – | inactive: -3.24%
35 | C(=N\Nc1nc(Nc2ccccc2)nc(N2CCCCC2)n1)/c1ccco1 | active: 12.6 µM | –
36 | Cc1ccc(-n2c(-c3ccc(Br)cc3)c[n+]3c2CCc2ccc4cccnc4c2-3)cc1 | active: 1.41 µM | –
37 | Cc1cc(NCCCn2ccnc2)n2ncc(-c3ccccc3)c2n1 | active: 7.94 µM | –
38 | Cc1cc(C(=O)OCC(=O)NCc2cccs2)c2ccccc2n1 | – | inactive: -2.21%
39 | Cc1cccc(-n2c(SCc3ccc(C#N)cc3)nnc2-c2c[nH]c3ccccc23)c1 | inconclusive [inhibitor, full curve, poor fit] | –
40 | Cc1ccc(NC(=O)C2CCN(S(=O)(=O)c3ccc4c(c3)NC(=O)C(C)S4)CC2)cc1C (stereo not given) | inconclusive [inhibitor, single point] | –
41 | NC1=NN=C(N2N=C(c3ccccc3)CC2(O)C(F)(F)F)n2ncnc2C1 (stereo not given) | inconclusive [inhibitor, single point] | –
42 | Cc1ccc(-n2cccc2/C=C2/NC(=O)N(CC(=O)Nc3cccc(C)c3)C2=O)cc1 | inconclusive [activator, single point] | –
43 | COc1ccc(C(=O)NC(=S)Nc2cc(C)ccn2)cc1[N+](=O)[O-] | active: 1 µM | –
44 | CC(C)(C)c1ccc(O)c(N=Cc2cc3c(cc2[N+](=O)[O-])OCO3)c1 | inconclusive [inhibitor, single point] | –
45 | CCc1ccc(CNC(=O)C2CCCN(c3nnc(C)c4c(C)n(-c5ccccc5)nc34)C2)cc1 (stereo not given) | inconclusive [inhibitor, single point] | –
46 | COc1ccc(NC(=O)CSc2nc(SC)ns2)c(OC)c1 | – | inactive: -10.1%
47 | COc1ccc(C(=O)NN2C(=O)C3C4C=CC(O4)C3C2=O)cc1 (stereo not given) | inconclusive [inhibitor, single point] | –
48 | Cn1c(SCC(=O)c2ccccc2)nnc1-c1ccc(O)cc1 | active: 11.2 µM | –
49 | CCN1CCN(Cc2ccc(NC(=O)c3ccc(C)c(/C=C/c4cnc(Nc5cc(N6CCNCC6)nc(C)n5)cn4)c3)cc2C(F)(F)F)CC1 | inconclusive [inhibitor, single point] | –
50 | c1ccc(CC2CCN(c3ncnc4sccc34)CC2)cc1 | active: 3.98 µM | –

Row | Compound | Potency | activity, negative = inhibition
51 | Cc1cc(NC(=O)CCN2C(=O)/C(=C\c3ccccc3Cl)SC2=S)no1 | – | inactive: -13.8%
52 | CCOC(=O)Cc1csc(NC(=O)CSc2nnnn2-c2ccc(C)cc2C)n1 | inconclusive [inhibitor, single point] | –
53 | Cc1ccc2cc3c(N)c4c(C)ccc(C)c4nc3nc2c1 | – | inactive: -2.31%
54 | CN(c1ccccc1)c1nc(N)c([N+](=O)[O-])c(N2CCCC2)n1 | inconclusive [activator, full curve, poor fit] | –
55 | C/C(=N\Nc1nc(C)cc(-c2ccccc2)n1)c1cccc(N)c1 | active: 15.8 µM | –
56 | Cc1cnc(CNc2nc(-c3ccc(N(C)C)cc3)nc3ccccc23)cn1 | active: 11.2 µM | –
57 | Cc1cccc(C(=O)Nc2ccc3c(c2)ncn3C)c1 | – | inactive: -8.97%
58 | CN(c1ccccn1)c1ncnc2[nH]ncc12 | inconclusive [inhibitor, partial curve] | –
59 | COc1ccc(C2NCCc3c2[nH]c2ccccc32)cc1CSc1nc2ccccc2s1 (stereo not given) | inconclusive [activator, single point] | –
60 | COc1ccc(-c2noc(CCC(=O)Nc3cccc(C)c3)n2)cc1 | inconclusive [inhibitor, partial curve] | –
61 | Cc1cc(=S)nc(-c2ccccn2)[nH]1 | inconclusive [inhibitor, partial curve] | –
62 | C=C(C)[C@@H]1CC=C(CN2CCC(N3CCC(C(=O)N4CCCC4)CC3)CC2)CC1 | inconclusive [inhibitor, partial curve] | –
63 | CC(NC(=S)NCCc1ccccc1)C(c1cccs1)N1CCN(Cc2ccccc2)CC1 (stereo not given) | inconclusive [inhibitor, single point] | –
64 | CC(=O)N1CCN(C(=O)C2(NC(=O)Nc3ccc(C)cc3)CCCCC2)CC1 | inconclusive [activator, single point] | –
65 | O=C(CSc1nc(-c2ccccc2)ns1)NCC1CCCO1 (stereo not given) | inconclusive [activator, single point] | –
66 | O=C(Cc1ccccc1F)Nc1ccc2c(c1)CCC2 | inconclusive [inhibitor, full curve] | –
67 | COc1ccc(-n2cc(-c3ccccc3)[nH]c2=S)cc1 | active: 3.55 µM | –
68 | Cc1cccc(OC(=O)c2sc3ncn(C)c(=O)c3c2C)c1 | inconclusive [activator, full curve, poor fit] | –
69 | CC(C)NC(=O)NC(=O)COC(=O)CCCSc1nc2ccccc2s1 | active: 6.31 µM | –
70 | CCC1(c2ccc(F)cc2)NC(=O)N(CC(=O)Nc2ccc(-c3nc4ccc(C)cc4s3)cc2)C1=O (stereo not given) | – | inactive: -13.8%
71 | N#CC(C#N)=C(Nc1ccc(F)cc1)SCc1cccc(Br)c1 | active: 7.94 µM | –
72 | Cc1ccc(CSc2nnc(SCC(=O)N/N=C/C=C/c3ccco3)s2)cc1 | active: 11.2 µM | –
73 | CN(C)c1ccc(-n2cccc2/C=N/n2cnnc2)cc1 | active: 14.1 µM | –
74 | COC(=O)c1cc(Br)c(=O)n(Cc2cccnc2)c1 | – | inactive: -3.42%
75 | C=CCn1c(=S)[nH]c2nc3c(cc2c1=O)COC(C)(C)C3 | inconclusive [inhibitor, partial curve] | –
